Assay [1] addresses T1, Flag-TBC1D31 (human) (UniProt Q96DN5).
T1 sequence: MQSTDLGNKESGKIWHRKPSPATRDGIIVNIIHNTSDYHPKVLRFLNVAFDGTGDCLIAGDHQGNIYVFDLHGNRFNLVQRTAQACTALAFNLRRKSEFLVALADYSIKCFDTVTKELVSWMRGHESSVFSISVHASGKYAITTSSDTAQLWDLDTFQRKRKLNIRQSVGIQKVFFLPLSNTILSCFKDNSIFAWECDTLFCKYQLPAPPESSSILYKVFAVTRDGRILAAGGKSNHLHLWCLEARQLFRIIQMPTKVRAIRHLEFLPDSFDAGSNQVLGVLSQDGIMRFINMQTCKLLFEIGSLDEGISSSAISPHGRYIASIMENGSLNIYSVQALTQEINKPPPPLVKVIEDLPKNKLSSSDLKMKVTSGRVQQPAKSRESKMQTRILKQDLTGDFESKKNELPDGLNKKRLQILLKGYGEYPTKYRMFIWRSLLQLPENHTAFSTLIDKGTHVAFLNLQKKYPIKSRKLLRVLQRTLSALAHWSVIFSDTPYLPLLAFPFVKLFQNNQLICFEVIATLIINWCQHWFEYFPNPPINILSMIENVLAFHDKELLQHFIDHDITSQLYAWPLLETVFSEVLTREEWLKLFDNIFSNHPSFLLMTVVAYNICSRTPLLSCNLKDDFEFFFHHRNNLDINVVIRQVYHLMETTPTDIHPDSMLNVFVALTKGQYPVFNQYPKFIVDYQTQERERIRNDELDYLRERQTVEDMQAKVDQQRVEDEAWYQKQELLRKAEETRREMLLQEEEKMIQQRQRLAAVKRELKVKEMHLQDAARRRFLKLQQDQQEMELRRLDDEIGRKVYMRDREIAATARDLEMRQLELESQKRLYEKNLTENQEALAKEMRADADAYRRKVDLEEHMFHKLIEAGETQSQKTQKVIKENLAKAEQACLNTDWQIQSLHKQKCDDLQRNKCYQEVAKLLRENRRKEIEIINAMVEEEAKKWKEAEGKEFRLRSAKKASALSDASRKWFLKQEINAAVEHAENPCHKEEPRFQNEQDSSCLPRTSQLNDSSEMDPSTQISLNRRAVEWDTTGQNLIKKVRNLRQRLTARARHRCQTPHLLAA
Description: co-IP; Flag-TBC1D31 and Myc-tagged Rabs co-expressed in HEK293T (text: HEK293) cells; NETN lysis buffer (100 mM NaCl, 1 mM EDTA, Tris pH 8.0, 0.5% NP-40), agarose A/G beads, 4 °C.

Protein sequences, listed by entry. Tags and fused reporters are not part of them.
UniProt P20339: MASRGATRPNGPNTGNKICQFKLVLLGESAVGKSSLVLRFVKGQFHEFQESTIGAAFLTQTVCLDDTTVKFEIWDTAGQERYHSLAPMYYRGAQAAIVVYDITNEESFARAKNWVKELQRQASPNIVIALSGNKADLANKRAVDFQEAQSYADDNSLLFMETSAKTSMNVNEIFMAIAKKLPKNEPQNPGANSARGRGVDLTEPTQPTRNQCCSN
UniProt P51149: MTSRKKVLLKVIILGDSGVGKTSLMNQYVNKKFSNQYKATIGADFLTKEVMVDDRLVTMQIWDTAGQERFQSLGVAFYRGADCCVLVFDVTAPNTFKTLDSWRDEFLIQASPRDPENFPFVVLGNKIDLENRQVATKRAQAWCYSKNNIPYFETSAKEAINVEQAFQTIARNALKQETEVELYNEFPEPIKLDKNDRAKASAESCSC
UniProt P62491: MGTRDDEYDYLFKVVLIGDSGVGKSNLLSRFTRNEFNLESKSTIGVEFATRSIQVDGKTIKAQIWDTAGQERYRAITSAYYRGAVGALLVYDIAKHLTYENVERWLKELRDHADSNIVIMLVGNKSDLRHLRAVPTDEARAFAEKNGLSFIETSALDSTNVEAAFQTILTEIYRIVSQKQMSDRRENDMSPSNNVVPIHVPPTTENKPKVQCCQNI
UniProt Q9UL25: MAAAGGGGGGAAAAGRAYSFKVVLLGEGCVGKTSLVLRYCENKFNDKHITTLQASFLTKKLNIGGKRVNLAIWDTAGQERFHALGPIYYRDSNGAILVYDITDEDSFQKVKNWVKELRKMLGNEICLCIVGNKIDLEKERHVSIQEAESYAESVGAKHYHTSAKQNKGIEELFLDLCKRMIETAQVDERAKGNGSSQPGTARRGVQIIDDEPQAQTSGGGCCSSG

The target of assay [2] is T2, Flag-TBC1D31 (in HepG2 cells) (human) (UniProt Q96DN5).
T2 sequence: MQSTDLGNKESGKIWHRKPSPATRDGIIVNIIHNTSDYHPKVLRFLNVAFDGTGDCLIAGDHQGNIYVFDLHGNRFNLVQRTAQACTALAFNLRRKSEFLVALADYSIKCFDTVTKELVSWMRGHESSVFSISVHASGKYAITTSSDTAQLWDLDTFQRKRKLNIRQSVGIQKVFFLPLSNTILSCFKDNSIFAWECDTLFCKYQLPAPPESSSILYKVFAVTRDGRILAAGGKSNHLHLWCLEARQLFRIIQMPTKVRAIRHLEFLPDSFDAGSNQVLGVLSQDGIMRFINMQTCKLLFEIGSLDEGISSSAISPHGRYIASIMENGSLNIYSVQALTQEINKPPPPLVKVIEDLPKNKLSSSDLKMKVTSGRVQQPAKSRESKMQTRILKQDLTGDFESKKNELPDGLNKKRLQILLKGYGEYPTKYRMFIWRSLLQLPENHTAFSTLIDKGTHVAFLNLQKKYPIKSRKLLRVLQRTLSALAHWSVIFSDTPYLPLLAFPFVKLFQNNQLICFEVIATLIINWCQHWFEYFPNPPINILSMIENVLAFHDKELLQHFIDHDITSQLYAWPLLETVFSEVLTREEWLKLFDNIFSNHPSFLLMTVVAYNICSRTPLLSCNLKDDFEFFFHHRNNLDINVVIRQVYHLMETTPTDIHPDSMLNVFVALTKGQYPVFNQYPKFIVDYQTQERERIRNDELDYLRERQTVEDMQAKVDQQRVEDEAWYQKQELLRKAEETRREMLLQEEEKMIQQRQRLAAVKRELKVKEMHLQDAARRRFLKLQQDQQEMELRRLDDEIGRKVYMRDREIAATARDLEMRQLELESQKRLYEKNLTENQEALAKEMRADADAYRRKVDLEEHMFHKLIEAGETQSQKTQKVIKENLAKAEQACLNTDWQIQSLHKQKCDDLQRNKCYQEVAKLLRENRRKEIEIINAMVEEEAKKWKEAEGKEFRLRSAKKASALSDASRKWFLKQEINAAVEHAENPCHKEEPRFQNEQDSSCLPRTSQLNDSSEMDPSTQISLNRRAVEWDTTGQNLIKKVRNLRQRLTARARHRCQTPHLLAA
Description: co-IP; HepG2 cells with Flag-TBC1D31 and endogenous Rab22A; IP and IB with anti-mouse Flag and anti-rabbit Rab22A; rabbit or mouse IgG as negative controls; NETN lysis buffer.

No constants are given. Whether binding was seen depends on the method and setting. In cells and extracts the contact can be indirect. Some results given as binding are weak or reduced against the parent protein; the word gives no strength. Tags and fused reporters may be left off the sequences shown.

For the molecule Myc-Rab5A (from UniProt P20339 1-215), the binding entry in assay [1] was “no binding”.

As to Myc-Rab7A (from UniProt P51149 1-207), the binding result in assay [1] is on record as “no binding”.

As for Myc-Rab11A (from UniProt P62491 1-216), the binding result in assay [1] is “no binding”.

Take Myc-Rab21A (from UniProt Q9UL25 1-225): the binding entry in assay [1] was “no binding”.

B1: Myc-Rab22A (protein, UniProt Q9UL26 1-194)
chain: MALRELKVCLLGDTGVGKSSIVWRFVEDSFDPNINPTIGASFMTKTVQYQNELHKFLIWDTAGQERFRALAPMYYRGSAAAIIVYDITKEETFSTLKNWVKELRQHGPPNIVVAIAGNKCDLIDVREVMERDAKDYADSIHAIFVETSAKNAININELFIEISRRIPSTDANLPSGGKGFKLRRQPSEPKRSCC
As for B1, the binding entry in assay [1] is recorded as “binds”.

B2: endogenous Rab22A (protein, UniProt Q9UL26 1-194)
chain: MALRELKVCLLGDTGVGKSSIVWRFVEDSFDPNINPTIGASFMTKTVQYQNELHKFLIWDTAGQERFRALAPMYYRGSAAAIIVYDITKEETFSTLKNWVKELRQHGPPNIVVAIAGNKCDLIDVREVMERDAKDYADSIHAIFVETSAKNAININELFIEISRRIPSTDANLPSGGKGFKLRRQPSEPKRSCC
As to B2, in assay [2], the binding result is reported as “binds”.

(Values after paper PMC11516053, “Genomic Amplification of TBC1D31 Promotes Hepatocellular Carcinoma Through Reducing the Rab22A‐Mediated Endolysosomal Trafficking and Degradation of EGFR” (Advanced Science, 2024).)
